Laboratory results from the supplement of paper PMC7125110.
± gives the standard error. Variants at the floor of the assay are shown more often than the library holds them.

B1: glmS ribozyme (parent)
chain: AUAAAAGCGCCAGAACUACAGAAAUGUAGUUGACGAGGAGGAGGUUUAUCGAAUUUUCGGCGGAUGCCUCCAAA

What was measured:
Settings in all cases: with glucosamine-6-phosphate
[1] = variants of: B1; assay: self-cleavage kobs at 40 uM GlcN6P; higher = faster cleavage; RNA array
Procedure, shortened: (§1)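 Barcoded ribozyme variants were transcribed in situ on sequenced MiSeq chips by E. coli RNA polymerase. At 37 °C, a hybridised Cy3 probe tracked them while glucosamine-6-phosphate (40 μM to 10 mM) in HEPES/KCl/Mg(OAc)2 buffer flowed in and tiles were imaged over ~14 h. Per-tile medians of signals normalised to baseline and to non-cleaving reference variants were fit to one- or two-exponential decays, giving kobs. kcat and KM came from weighted Michaelis–Menten fits across concentrations.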

[2] = variants of: B1; assay: self-cleavage kobs at 160 uM GlcN6P; higher = faster cleavage; RNA array
Procedure, shortened: as §1

[3] = variants of: B1; assay: self-cleavage kobs at 2500 uM GlcN6P; higher = faster cleavage; RNA array
Procedure, shortened: as §1

[4] = variants of: B1; assay: self-cleavage kobs at 10000 uM GlcN6P; higher = faster cleavage; RNA array
Procedure, shortened: as §1

[5] = variants of: B1; assay: self-cleavage kobs at 640 uM GlcN6P; higher = faster cleavage; RNA array
Procedure, shortened: as §1

AUAAAAGCGCCAGAACUACAGAAAUGUAGUUGACGAGGAGGAGGGUUAUCGAAUUUUCGGCGGAUGCAUCCAAA [U45G C68A]
self-cleavage kobs at 40 uM GlcN6P [1]: < 1e-05 s⁻¹

AUAAAAGCGCCAGAACUACAGAAAUGUAGUUGACGAGGAGGAGGUAUUUCGAAUUUACGUCGGAUGUAUCCAAA [U46A A48U U57A G60U C67U C68A]
self-cleavage kobs at 40 uM GlcN6P [1]: < 1e-05 s⁻¹

AUAAAAGCGCCAGAACUACAGAAAUGUAGUUGACGAGGAGGAGGUCUGUCGAAUUUUCGGCGGAUGCCUCCAAA [U46C A48G]
self-cleavage kobs at 40 uM GlcN6P [1]: < 1e-05 s⁻¹ | self-cleavage kobs at 160 uM GlcN6P [2]: < 1e-05 s⁻¹ | self-cleavage kobs at 2500 uM GlcN6P [3]: < 1e-05 s⁻¹ | self-cleavage kobs at 10000 uM GlcN6P [4]: < 1e-05 s⁻¹

AUAAAAGCGCCAGAACUACAGAAAUGUAGUUGACGAGGAGGAGGUAUAUCGAAUUUUCGGCGGGUGCCUCCAAA [U46A A64G]
self-cleavage kobs at 40 uM GlcN6P [1]: 0.000102 ± 2.3e-05 s⁻¹ | self-cleavage kobs at 640 uM GlcN6P [5]: 0.000754 ± 0.00015 s⁻¹ | self-cleavage kobs at 2500 uM GlcN6P [3]: 0.00242 ± 0.00047 s⁻¹

AUAAAAGCGCCAGAACUACAGAAAUGUAGUUGACGAGGAGGAGGUAUAUCGAAUUUUCGGCGGAUUCCUCCAAA [U46A G66U]
self-cleavage kobs at 40 uM GlcN6P [1]: 5.04e-05 ± 2.3e-05 s⁻¹ | self-cleavage kobs at 640 uM GlcN6P [5]: 0.000412 ± 7.3e-05 s⁻¹ | self-cleavage kobs at 160 uM GlcN6P [2]: 8.12e-05 ± 1.9e-05 s⁻¹ | self-cleavage kobs at 2500 uM GlcN6P [3]: 0.00111 ± 0.00027 s⁻¹ | self-cleavage kobs at 10000 uM GlcN6P [4]: 0.00229 ± 0.00041 s⁻¹

AUAAAAGCGCCAGAACUACAGAAAUGUAGUUGACGAGGAGGAGGGUUAUCCAAUUGUCGGCGGAUGCCUCCAAA [U45G G51C U56G]
self-cleavage kobs at 40 uM GlcN6P [1]: < 1e-05 s⁻¹ | self-cleavage kobs at 640 uM GlcN6P [5]: < 1e-05 s⁻¹ | self-cleavage kobs at 10000 uM GlcN6P [4]: < 1e-05 s⁻¹

AUAAAAGCGCCAGAACUACAGAAAUGUAGUUGACGAGGAGGAGGGUUAUCGAAUUUACGGCGGAUGCCUCCAAA [U45G U57A]
self-cleavage kobs at 40 uM GlcN6P [1]: < 1e-05 s⁻¹

AUAAAAGCGCCAGAACUACAGAAAUGUAGUUGACGAGGAGGAGGUAUAUGGAUUUUUCGGCGGAUGCCUGCAAA [U46A C50G A53U C70G]
self-cleavage kobs at 40 uM GlcN6P [1]: 0.000147 ± 6.3e-05 s⁻¹ | self-cleavage kobs at 10000 uM GlcN6P [4]: 0.000126 ± 3.8e-05 s⁻¹

AUAAAAGCGCCAGAACUACAGAAAUGUAGUUGACGAGGAGGAGGUAUAUUGAAUUUUCGGCGGAUGCCUCCAAA [U46A C50U]
self-cleavage kobs at 40 uM GlcN6P [1]: < 1e-05 s⁻¹ | self-cleavage kobs at 640 uM GlcN6P [5]: < 1e-05 s⁻¹ | self-cleavage kobs at 160 uM GlcN6P [2]: < 1e-05 s⁻¹

AUAAAAGCGCCAGAACUACAGAAAUGUAGUUGACGAGGAGGAGGUCUAUCGAUUUUUCGGCGGAUGCCUCCAAA [U46C A53U]
self-cleavage kobs at 40 uM GlcN6P [1]: 3.88e-05 ± 1.2e-05 s⁻¹ | self-cleavage kobs at 640 uM GlcN6P [5]: 0.000471 ± 9.9e-05 s⁻¹ | self-cleavage kobs at 160 uM GlcN6P [2]: 0.000145 ± 3.3e-05 s⁻¹ | self-cleavage kobs at 2500 uM GlcN6P [3]: 0.0012 ± 0.00023 s⁻¹ | self-cleavage kobs at 10000 uM GlcN6P [4]: 0.00133 ± 0.00028 s⁻¹

AUAAAAGCGCCAGAACUACAGAAAUGUAGUUGACGAGGAGGAGGUAUAUCGAAUUUUCGCCGGAUGCCUCCAAA [U46A G60C]
self-cleavage kobs at 40 uM GlcN6P [1]: < 1e-05 s⁻¹ | self-cleavage kobs at 640 uM GlcN6P [5]: < 1e-05 s⁻¹ | self-cleavage kobs at 160 uM GlcN6P [2]: < 1e-05 s⁻¹ | self-cleavage kobs at 2500 uM GlcN6P [3]: < 1e-05 s⁻¹ | self-cleavage kobs at 10000 uM GlcN6P [4]: < 1e-05 s⁻¹

AUAAAAGCGCCAGAACUACAGAAAUGUAGUUGACGAGGAGGAGGUCUAUCGAAUUUUCGGCGGAUGCAUCCAAA [U46C C68A]
self-cleavage kobs at 40 uM GlcN6P [1]: < 1e-05 s⁻¹

AUAAAAGCGCCAGAACUACAGAAAUGUAGUUGACGAGGAGGAGGGUUAUCGAAUUUUCGGCAGAUGCCUGGAAA [U45G G62A C70G C71G]
self-cleavage kobs at 40 uM GlcN6P [1]: < 1e-05 s⁻¹

AUAAAAGCGCCAGAACUACAGAAAUGUAGUUGACGAGGAGGAGGUCUAUCGAAUUUUCGCCGGAUGACUCCAAA [U46C G60C C67A]
self-cleavage kobs at 40 uM GlcN6P [1]: < 1e-05 s⁻¹ | self-cleavage kobs at 10000 uM GlcN6P [4]: < 1e-05 s⁻¹
